In publication PMC4336329 (PLoS ONE, 2015):
About 2,200 (0.71%) of roughly 310,000 compounds showed an effect of 50% or more. The effect is printed as a negative number. Some of the results follow.

Biological target: human ether-à-go-go-related gene (hERG) potassium channel (human, UniProt Q12809)
Assay: primary screen, population patch clamp on CHO cells stably expressing hERG

human ether-à-go-go-related gene (hERG) potassium channel, sequence (Q12809 whole entry, looked up): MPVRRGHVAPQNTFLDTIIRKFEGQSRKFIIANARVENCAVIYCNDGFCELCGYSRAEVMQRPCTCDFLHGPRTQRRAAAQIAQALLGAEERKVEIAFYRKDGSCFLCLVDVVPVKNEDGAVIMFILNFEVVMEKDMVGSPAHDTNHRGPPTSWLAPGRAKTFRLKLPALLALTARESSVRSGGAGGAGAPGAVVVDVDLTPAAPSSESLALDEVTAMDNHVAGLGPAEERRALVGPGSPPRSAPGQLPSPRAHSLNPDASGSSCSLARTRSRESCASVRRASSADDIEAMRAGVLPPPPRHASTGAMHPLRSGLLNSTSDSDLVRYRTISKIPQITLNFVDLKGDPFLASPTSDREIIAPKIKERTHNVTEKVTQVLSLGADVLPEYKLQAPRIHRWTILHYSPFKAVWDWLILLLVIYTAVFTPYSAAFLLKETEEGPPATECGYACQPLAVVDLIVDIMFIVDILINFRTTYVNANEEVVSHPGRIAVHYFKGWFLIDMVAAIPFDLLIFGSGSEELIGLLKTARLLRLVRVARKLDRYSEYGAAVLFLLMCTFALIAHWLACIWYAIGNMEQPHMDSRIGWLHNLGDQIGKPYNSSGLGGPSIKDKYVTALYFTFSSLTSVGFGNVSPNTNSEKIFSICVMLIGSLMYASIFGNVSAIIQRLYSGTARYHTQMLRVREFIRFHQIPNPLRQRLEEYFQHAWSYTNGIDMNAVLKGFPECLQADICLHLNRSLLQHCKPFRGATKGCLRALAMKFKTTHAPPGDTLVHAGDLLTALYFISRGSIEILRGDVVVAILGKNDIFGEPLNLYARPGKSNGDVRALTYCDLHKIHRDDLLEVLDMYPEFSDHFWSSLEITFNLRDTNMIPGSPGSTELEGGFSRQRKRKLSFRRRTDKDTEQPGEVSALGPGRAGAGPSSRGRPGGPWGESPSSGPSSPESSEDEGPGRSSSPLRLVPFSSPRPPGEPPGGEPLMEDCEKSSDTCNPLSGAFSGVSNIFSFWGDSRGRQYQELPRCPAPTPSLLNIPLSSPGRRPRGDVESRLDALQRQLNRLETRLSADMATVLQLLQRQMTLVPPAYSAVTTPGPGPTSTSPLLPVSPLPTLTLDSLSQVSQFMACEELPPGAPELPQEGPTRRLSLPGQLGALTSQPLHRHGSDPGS

SMILES	hERG current change (%, negative = inhibition) at 1uM
Cc1cc(=O)oc2c(C(=O)c3ccccc3)c(OCC(N)=O)ccc12	9.62%
Cc1ccc(CNCCCSc2nc(C)cc(C)n2)cc1.Cl	8.13%
CN(C)c1ccc(NC(=O)CN2CCc3ccccc3C2)cc1	9.35%
COc1ccc(C(C)C)cc1S(=O)(=O)Nc1ccc(Cl)cn1	5.75%
Cc1ccc(S(=O)(=O)Oc2ccc(/C=C3/C(=N)N4C(=NC3=O)SN=C4S(C)(=O)=O)cc2)cc1	5.97%
CCN(CC)CCn1c2c(c(SCC(=O)Nc3ccc(F)c(F)c3)nc1=O)CCC2	-38.8%
COc1cc(/C=N/NC(=O)c2cccnc2)cc2c1OCO2	11.1%
CN(C)C(=O)COc1ccc2c3c(c(=O)oc2c1)CCCC3	10.1%
Cl.O=C(NCCN1CCCC1)c1ccc(Cl)cc1	4.82%
Cc1nnc(NC(=O)c2nc(S(=O)(=O)Cc3ccccc3C)ncc2Cl)s1	31.2%
CC(C)c1ccc(NC2CCCN(C(=O)c3cnc4ccccn4c3=O)C2)cc1 (stereo not shown)	12.6%
COc1cccc(C(=O)Nc2cc(C)c3c(=O)oc4ccccc4c3n2)c1	8.13%
CCOc1ccc(CNn2nnnc2N)cc1	-0.778%
CCOc1ccccc1NC(=O)c1c(Br)cnn1C	10.9%
CC1(C)CC(=O)C(N=Nc2ccc3ncsc3c2)=C(O)C1	6.55%
CCC(C)(C)NC(=O)CN(Cc1ccccc1Cl)C(=O)CCC(=O)Nc1cc(C)ccn1	7.62%
O=c1c2ccccc2nnn1Cc1cccc2ccccc12	7.23%
CCSc1nnc(NC(=O)c2cc3c(s2)CCCC3)s1	1.29%
CCOC(=O)Cn1c(=O)oc2cc(S(=O)(=O)NC3CCCCC3)ccc21	12.4%
CS(=O)(=O)N(Cc1ccc(C(=O)NCCSCc2ccco2)cc1)c1ccccc1	-0.859%
CC(c1ccccc1)n1cc(C(=O)NCC2CCCO2)nn1 (stereo not shown)	13.6%
Cc1nnc(NC(=O)CSc2nnc(C)c(=O)n2N)s1	14.9%
Cc1onc(-c2ccccc2)c1CNC(=O)Nc1cccc(Cl)c1	8.08%

SMILES	hERG current change (%, negative = inhibition) at 1uM
O=C(O)c1ccccc1C(=O)Nc1ccc(Br)c2cccnc12	14.5%
O=C1/C(=C\Nc2ccc(Cl)cc2)CCN1c1ncccn1	-6.89%
CN1CCN(/N=C/c2nc(-c3ccccc3Cl)n3ccccc23)CC1	3.18%
c1ccc2[nH]c3cc4ncnc4cc3nc2c1	6.18%
CCOc1ccc(/C=N/NC(=S)NC2CC3CC2C2C=CCC32)cc1 (stereo not shown)	13%
O=C(c1cccc(F)c1)N1CCN(S(=O)(=O)Cc2ccccc2)CC1	18.7%
COC(=O)/C=C1/S/C(=N/N=C/c2ccc(N(C)C)cc2)NC1=O	13.3%
CCN(CC)S(=O)(=O)c1cccc(-c2nn(-c3ccccc3)cc2/C=C(\C#N)C(=O)NCc2ccco2)c1	7.33%
CC(=O)Nc1ccc(SCC(=O)N(C)C2CCS(=O)(=O)C2)cc1 (stereo not shown)	8.69%
CCOc1ccc2c(c1)C(=O)C(=O)N2CC1COc2ccccc2O1 (stereo not shown)	10.7%
Cc1ccc(C(=O)NNC(=O)CCN2C(=O)C3CCCCC3C2=O)cc1 (stereo not shown)	-1.6%
CN(CCOc1ccccc1)CC(=O)Nc1cccc(Br)c1.O=C(O)C(=O)O	10.6%
COc1ccc2c(C(=O)CN3CC(C)OC(C)C3)c[nH]c2c1 (stereo not shown)	6.86%
Cl.NC(=NCCc1ccccc1)NC(=O)c1cc(Cl)ccc1O	7.94%
Cc1ccccc1S(=O)(=O)Cc1ccc(C(=O)NC2CCC(C)CC2)o1 (stereo not shown)	6.73%
Cc1cc(=O)n2c3ccccc3n(CC(O)CN3CCN(CCO)CC3)c2c1C#N (stereo not shown)	-1.4%
COc1ccc(NC2CCCN(C(=O)c3ccc(OC)o3)C2)cc1 (stereo not shown)	8.6%
O=C(COc1ccccc1Cl)NCCNC(=O)c1ccccn1	25.4%
Cn1c(-c2ccc(=O)[nH]c2)nc2ccccc21	6.08%
CCc1ccc2nc(NC(=O)c3ccc(N4C(=O)CCC4=O)cc3)sc2c1	11.7%
Cc1ccc(/C=N/c2sc3c(c2C(N)=O)CCCC3)o1	5.88%
O=[N+]([O-])c1ccc(COn2nnc3ccccc32)cc1	0.127%
CC(=O)N1C(C(=O)O)CSC1c1ccc(C)cc1 (stereo not shown)	12.1%

SMILES	hERG current change (%, negative = inhibition) at 1uM
O=C1CC2(CCN(C(=O)c3ccc(Cl)cc3)CC2)Oc2ccccc21	-63.7%
O=C(C1CC(Cl)CN1S(=O)(=O)c1ccc(Cl)cc1)N1CCOCC1 (stereo not shown)	15.6%
C/C=C/c1ccc(OCCOc2ccc(C=O)cc2)c(OC)c1	22.1%
C=CCn1c(C)cc(C(=O)CN2C(=O)c3ccccc3S2(=O)=O)c1C	4.57%
Cc1ccc(CNC(C)c2ccccc2)cc1.Cl (stereo not shown)	5.75%
CCOc1ccc(CNC(=O)c2ccc(Sc3ccc(C)cc3)c(NC(C)=O)c2)cc1	5.97%
CC(=O)Nc1ccc(C)c(NC(=S)Nc2ccc(F)cc2)c1	15.5%
CCOc1ccc(N2CC(C(=O)NCCCc3ccccc3)CC2=O)cc1 (stereo not shown)	-35.2%
CCCOC(=O)C1=C(C)NC(=O)NC1c1ccc(Br)s1 (stereo not shown)	12.9%
COc1cccc(/C=C2\SC(=O)NC2=O)c1OCc1ccc(C(=O)O)cc1	13.5%
COC(=O)CSc1ccc(S(=O)(=O)N2CCC(C)CC2)cc1[N+](=O)[O-]	5.28%
Cc1ccc(CNC(=O)Cn2cnc3c(NC(=O)OCc4ccccc4)ncnc32)o1	-3.92%
Cc1ccc(NS(=O)(=O)c2cccc(C(=O)NCC3CCCO3)c2)cc1 (stereo not shown)	14.1%
CC(=O)c1ccc(-c2nnc(CCC(=O)N(C)Cc3cnc4ccccn34)o2)s1	4.08%
O=[N+]([O-])c1nn(-c2ccc3c(c2)OCCO3)n(O)c1=NCCCO	5.81%
O=[N+]([O-])c1ccc2sc(SCc3nc4ccccn4c3Br)nc2c1	23.3%
COc1cc(C(N)=O)cc(Cl)c1OC	33.2%
C[C@@H](C(=O)Nc1ccc2ccccc2c1)[C@H]1C[C@]1(C)[C@H](NC(=O)c1cccnc1)c1ccccc1	5.03%
N=c1c2c(ncn1Cc1ccco1)Oc1ccc3ccccc3c1C2c1ccccc1 (stereo not shown)	3.87%
COc1cccc(C(=O)N(C)C(C)c2nc3ccccc3s2)c1 (stereo not shown)	3.93%
CCc1c(C)sc(NC(=O)c2cccs2)c1C(=O)OC(C)C	9.07%
CCCc1nnc(NC(=O)CCC(=O)N2CCN(c3ccccc3)CC2)s1	2.72%
N#Cc1sc2nc(-c3cccs3)cc(-c3ccc(Cl)cc3)c2c1N	6.9%

SMILES	hERG current change (%, negative = inhibition) at 1uM
O=C1C2C3C=CC(C2C(=O)N1C1CCCCC1)C1C2C(=O)N(C4CCCCC4)C(=O)C2C31 (stereo not shown)	3.92%
COc1cccc(-c2nn(C)c3sc(C(=O)N4CCOCC4)cc23)c1	7.32%
COC(=O)C1(C)NC(c2cccs2)C2C(=O)N(c3ccc(F)cc3)C(=O)C21 (stereo not shown)	16.2%
O=C(COC(=O)c1ccc(Cl)c(S(=O)(=O)N2CCOCC2)c1)Nc1ccc2[nH]c(=O)[nH]c2c1	11.2%
Cc1cc(C)c2cccc(N)c2n1	20.4%
CCCCNS(=O)(=O)c1ccc2nc(-c3cccnc3)cc(C(=O)NCCCN(CC)CC)c2c1	-17%
Cc1ccc(NS(=O)(=O)c2ccc(C(=O)OCC(=O)N3CCCCC3)cc2)cc1	3.74%
O=C(Cc1ccc(F)cc1)NCc1cccnc1	8.09%
Br.CCn1c(=N)n(CC(=O)c2ccc(Cl)c(Cl)c2)c2ccccc21	-10.4%
O=C(Oc1ccc(Cl)cc1N1C(=O)CCC1=O)c1ccco1	9.56%
O=C1CC(NCc2ccccc2F)C(=O)N1c1ccccc1 (stereo not shown)	12.5%
CCn1c(Cc2c(C)[nH]c3ccccc23)n[nH]c1=S	-13.4%
c1ccc(-c2ccc(-c3ccncn3)cc2)cc1	15.6%
Cc1ccc(C(=O)NCC(=O)OCCCn2c(=O)[nH]c3ccccc32)cc1	7.53%
C=C(C)Cn1cnc2c(oc3nc4c(cc32)CCCC4)c1=O	10.1%
C=CC(=O)NC(C)(C)CCN1CCOCC1	8.55%
Clc1nc(-c2ccccc2)cc(-c2ccccc2)n1	-1.29%
COCCn1c(=O)[nH]c2cc(C(=O)NC(C)C)ccc2c1=O	18.4%
CC(=O)c1c(C)n(-c2cccc(Cl)c2)c2ccc(O)cc12	7.93%
Cc1ccc(NC(=O)CCNS(=O)(=O)c2cccc3nsnc23)cc1F	7.62%
O=C1N/C(=N/O)S/C1=C/c1cccc([N+](=O)[O-])c1	20.8%
CC(=O)N1C(=O)C2(C(C#N)=C(N)Oc3n[nH]c(-c4ccccn4)c32)c2ccccc21 (stereo not shown)	4.15%
